The record followed here is article PMC7288428, “Amaryllidaceae alkaloids with anti-Trypanosoma cruzi activity” (Parasites & Vectors, 2020).

Where two headings read alike, the source gives them in different places.

The experiment deals with Trypanosoma cruzi Tulahuen strain expressing β-galactosidase. The experiment is described as follows: microbe, parasite or virus in culture.
Where [1] appears, read: Trypanosoma cruzi, TULAHUEN, Vero, 96 h.

In the case of `CC(=O)O[C@@H]1CC=C2CCN3Cc4cc5c(cc4[C@H]1[C@@H]23)OCO5` [1-O-acetylcaranine], the “activity against the parasite (active / inactive)” value (from here on “activity … (active / inactive)”) was “inactive”. The IC50 (usually the point on the concentration scale where inhibition reaches its midpoint) under setting [1] was 35500 nM.
In turn, `O=C(Cn1ccnc1[N+](=O)[O-])NCc1ccccc1` [BNZ, benznidazole, reference compound] gave an IC50 under setting [1] of 1560 nM.
Turning to `O[C@H]1C=C[C@@]23CCN(Cc4cc5c(cc42)OCO5)[C@@H]3C1` [Crinine, crinine], the “activity … (active / inactive)” value is “inactive”. The same compound came in with an IC50 under setting [1] of 57900 nM.
The like results for `COC1C=CC23c4cc5c(cc4CN(CC2O)C3C1)OCO5` (centres unmarked) [Haemanthamine, haemanthamine] were, in that order, “active” and 1590 nM.
The like results for `CN1CCC2=C[C@H](O)[C@H]3OC(=O)c4cc5c(cc4[C@H]3[C@@H]21)OCO5` [Hippeastrine, hippeastrine] were, in that order, “active” and 3630 nM.
The like results for `O[C@H]1[C@H]2c3cc4c(cc3CN3CCC(=C[C@@H]1O)[C@H]23)OCO4` [Lycorine, lycorine] were, in that order, “active” and 700 nM.
For `CO[C@H]1C=C2[C@H]3C[N@@](Cc4cc5c(cc43)OCO5)[C@H]2C[C@@H]1O` [Montanine, montanine], the “activity … (active / inactive)” value is listed as “active”. Also, the IC50 under setting [1] is 1990 nM.
For `O=C1N[C@@H]2C(=C[C@H](O)[C@@H](O)[C@H]2O)c2cc3c(c(O)c21)OCO3` [Narciclasine, narciclasine], the IC50 by setting is: (anti-T. cruzi phenotypic assay, Vero hosts, 4 days, mean (SD)) 490 nM; (anti-T. cruzi phenotypic assay, Vero hosts, 4 days, mean (SD), listed as narciclassine) 495 nM. Moreover, the “activity … (active / inactive)” value (phenotypic T. cruzi growth inhibition assay, in words) is “active”.
Consider `CN1CC[C@@]23C=C[C@H](O)C[C@@H]2Oc2c(O)ccc(c23)C1` [Sanguinine, sanguinine], for which the “activity … (active / inactive)” value was “inactive”. This compound also yielded an IC50 under setting [1] of 213000 nM.
Regarding `CO[C@@H]1C=C[C@@]23c4cc5c(cc4CO[C@]2(O)CN(C)[C@H]3C1)OCO5` [Tazettine, tazettine], the “activity … (active / inactive)” value was “inactive”. Also, the IC50 under setting [1] is 83000 nM.
